Experimental data published in PubChem BioAssay AID1645882 (National Center for Advancing Translational Sciences (NCATS), 2021).
Hit rate of the full screen: of about 16,000 compounds, about 120 (0.75%) were called active. Roughly 4% stayed inconclusive and do not appear here. Calls follow the shape of the dose curve; as a rule, active = well fitted inhibition curve with a large enough effect; inconclusive = small, poorly fitted or top-dose-only effect; inactive = no such curve, though single readings can be large or run the other way. This is one part of the list. Where a SMILES comes first, the peptide text is derived from it. [ ]: non-standard residue; d: D form. Orn = NCCC[C@H](N)C(=O)O

target: Rap guanine nucleotide exchange factor 3 (Homo sapiens) (UniProt O95398); experiment: Validation qHTS for antagonist of cAMP-regulated guanine nucleotide exchange factor 3 (EPAC1); settings: EPAC1 Rap1B-BODIPY-GDP exchange, fluorescence; series mostly up to 150 µM; activity change, negative = inhibition: at the top concentration; also: nearly all actives have a fitted effect of over 75% in size
From the text: Assay Provider (PI): Xiaodong Cheng Ph.D.
The University of Texas Medical Branch, […], TX
In multi-cellular eukaryotic organisms, the effects of cAMP are transduced by two ubiquitously-expressed intracellular cAMP receptors, the classic protein kinase A/cAMP-dependent protein kinase (PKA/cAPK) and the more recently discovered exchange protein directly activated by cAMP/cAMP-regulated guanine nucleotide exchange factor (EPAC/cAMP-GEF). Both PKA and EPAC are ubiquitously expressed in all tissues, and an increase in intracellular cAMP levels will lead to the activation of both PKA and EPAC. Therefore, careful dissections of the individual role and relative contribution of EPAC and PKA within the overall cAMP signaling in various model systems are critical for further elucidating the mechanism of cAMP signaling. To date no EPAC-specific antagonists and agonist, as well as isoform-specific agonists have been reported, and developing EPAC-specific pharmacological probes to determine the physiological functions that EPAC play in the overall cAMP-mediated signaling remains a major challenge within the research field. Furthermore, identified regulators of EPAC may lead to new mechanism-based therapeutic strategies specifically targeting the EPAC / cAMP-signaling components as EPAC has been implicated to play important roles in major human pathological conditions such as diabetes, heart disease, and cancer.
This qHTS will be used to screen the Molecular Libraries Small Molecule Repository (MLSMR) as a concentration-titration series using the NCGC unique quantitative screening (qHTS) platform to find activators for EPAC1. In addition, this assay will also be used as a counterscreen for the EPAC2 qHTS. This fluorescent based assay is developed and validated for EPAC1 that measures exchange using EPAC effector Rap1 complex with BODIPY-GDP, a GDP analog with a tethered fluorophores. Activators are identified by monitoring the change in fluorescence signal as the exchanged free BODIPY-GDP has a reduced fluorescence compared to Rap1-bound BODIPY-GDP. Increase in signal (activation) is the desired outcome for the EPAC1 agonist while no activity in this assay is desired for the EPAC2 agonist counterscreen.
[1] de Rooij, J., Zwartkruis, F. J., Verheijen, M. H., Cool, R. H., Nijman, S. M., Wittinghofer, A., and Bos, J.L. (1998) Nature 396, 474-477.
Briefly, three uL of reagents (100 nM EPAC1, 250 nM RAP1B-BODIPY-GDP, 50 uM GDP) were dispensed into a 1536-well Greiner black solid-bottom medium binding assay plate. Controls and test compounds (23 nL) were transferred to the plate via a Kalypsys pin tool equipped with a 1536-pin array. The plates were centrifuged at 1,000 rpm for 15 seconds followed by 5 minute incubation at room temperature. The assay plates were read at 5 minute intervals for 30 minutes in the ViewLux plate reader using 480nm excitation and 540nm emission filters. The results were normalized to the […] positive control ATA and DMSO.

UniProt O95398, sequence (O95398 whole entry, looked up): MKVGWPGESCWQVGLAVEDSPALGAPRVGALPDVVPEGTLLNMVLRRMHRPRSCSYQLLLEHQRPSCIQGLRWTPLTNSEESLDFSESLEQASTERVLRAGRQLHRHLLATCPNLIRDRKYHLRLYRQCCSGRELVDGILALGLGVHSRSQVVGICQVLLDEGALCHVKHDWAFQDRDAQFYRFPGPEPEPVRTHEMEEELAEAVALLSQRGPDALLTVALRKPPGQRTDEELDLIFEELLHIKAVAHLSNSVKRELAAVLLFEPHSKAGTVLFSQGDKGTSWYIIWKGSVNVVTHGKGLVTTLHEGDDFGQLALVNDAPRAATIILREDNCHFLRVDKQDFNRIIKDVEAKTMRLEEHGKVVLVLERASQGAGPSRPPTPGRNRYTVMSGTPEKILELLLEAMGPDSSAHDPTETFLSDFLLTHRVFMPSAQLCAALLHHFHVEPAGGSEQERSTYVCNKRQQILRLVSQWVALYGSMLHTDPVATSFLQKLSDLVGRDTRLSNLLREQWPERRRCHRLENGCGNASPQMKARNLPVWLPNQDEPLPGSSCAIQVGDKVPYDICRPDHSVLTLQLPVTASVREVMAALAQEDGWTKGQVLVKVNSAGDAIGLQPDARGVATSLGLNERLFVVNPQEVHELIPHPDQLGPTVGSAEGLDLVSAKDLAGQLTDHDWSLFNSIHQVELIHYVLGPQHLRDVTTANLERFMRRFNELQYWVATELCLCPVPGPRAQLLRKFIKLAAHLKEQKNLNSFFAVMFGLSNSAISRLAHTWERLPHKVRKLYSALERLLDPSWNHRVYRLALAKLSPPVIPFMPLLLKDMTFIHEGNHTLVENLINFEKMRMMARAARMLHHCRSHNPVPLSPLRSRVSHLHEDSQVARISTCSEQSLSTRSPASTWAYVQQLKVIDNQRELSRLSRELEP

| Structure (SMILES) | activity change, negative = inhibition |
| --- | --- |
| COc1ccccc1C(=O)O[C@H]1[C@H](Cc2ccccc2)NS(=O)(=O)[C@H]2C[C@@H]3C=C[C@]12O3 | inactive: -2.46% |
| C=C1Cc2c(Cl)cc3[nH]c4c5c3c2[C@@]2(O)[C@@H]1C[C@@H]2C(C)(C)O[C@H]5[C@@H]1CC[C@@]2(O)[C@@]35O[C@@H]3[C@@H](O)[C@@H](C(=O)O)O[C@H]5CC[C@]2(C)[C@@]41C | inactive: -6.41% |
| Cc1c(Cl)cccc1Nc1ncccc1C(=O)O | inactive: 11.9% |
| CN(C)c1ccc(/C=C/c2ccc3cc(N(C)C)ccc3n2)cc1 | inactive: 11.2% |
| Cc1ncc2c(c1CNC(=O)c1ccc3c(c1)OCO3)CCN(C(=O)c1cn3ccccc3n1)C2 | inactive: 20.9% |
| O=c1onc2n1-c1cc(Br)ccc1OC2 | inactive: 9.42% [at 75.8 µM] |
| O=c1cnc2cnc(Nc3ccccc3)nc2n1CCc1ccccc1 | inactive: 20.5% |
| Cc1c(C(=O)N(C)C(C)C)sc2ncnc(NCCCN3CCOCC3)c12 | inactive: 14.4% |
| COC(=O)c1cc(Br)ccc1N(Cc1cc(OC)cc(OC)c1)S(C)(=O)=O | inactive: 8.41% |
| Cc1ccc(/C(=C\CN2CCCC2)c2ccccn2)cc1 | inactive |
| CN1CCCC2(CCN(C(=O)c3cnccn3)CC2)C1 | inactive: 21.9% |
| COc1ccc(-n2c(=O)c(-c3cccc(Cl)c3)nc3cncnc32)cc1 | inactive: 3.97% |
| CN(Cc1cccc2ncccc12)C(=O)c1cnn(-c2ncc3c(n2)-c2ccccc2CC3)c1C1CC1 | inactive: -12.6% |
| CN(C)c1ncc2nc(-c3ccccc3)c(=O)n(-c3ccccc3)c2n1 | inactive: 40.8% |
| COc1ncc2nc(-c3ccc(F)cc3)c(=O)n(CCC#N)c2n1 | inactive: 3.93% |
| C[C@H]1[C@@H](OC(=O)CCC(=O)O)O[C@@H]2OC3(C)CC[C@H]4[C@H](C)CC[C@@H]1[C@@]24OO3 | inactive: 9.81% |
| CCCCCc1ccc(-c2cn(CCCOCc3ccccc3)nn2)cc1 | inactive: -11.4% |
| CC(C)(O/N=C(\C(=O)N[C@@H]1C(=O)N2C(C(=O)[O-])=C(C[n+]3ccccc3)CS[C@H]12)c1csc(N)n1)C(=O)O | inactive: 3.4% [at 75.8 µM] |
| C[C@@H](O)[C@H](N)C(=O)O | inactive: 11.4% |
| O=C1[O][Bi][O]c2ccccc21 | inactive: 9.82% |
| COc1ccc(OC)c(-c2ccnc(-n3ncc(C(=O)N4CCN(CCO)CC4)c3C3CC3)n2)c1 | inactive: 2.87% |
| COc1ccccc1CCn1c(=O)c(-c2ccccc2)nc2cncnc21 | inactive: -0.0863% |
| COC(=O)CNC(=O)c1cnn(-c2ncc3c(n2)-c2ccccc2CCC3)c1C1CC1 | inactive: 10.7% |
| CCOC(=O)C(CCc1ccccc1)NC(C)C(=O)N1CCCC1C(=O)O (centres undefined) | inactive: 3.16% |
| CC(C)C[C@@H]1NC(=O)[C@H](CCCN)NC(=O)[C@H](C(C)C)NC(=O)[C@@H]2CCCN2C(=O)[C@@H](Cc2ccccc2)NC(=O)[C@H](CC(C)C)NC(=O)[C@H](CCCN)NC(=O)[C@H](C(C)C)NC(=O)[C@@H]2CCCN2C(=O)[C@@H](Cc2ccccc2)NC1=O (cyclo(V[Orn]L[dF]PV[Orn]L[dF]P)) | inactive: 7.51% |

| Structure (SMILES) | activity change, negative = inhibition |
| --- | --- |
| COc1ccc(C2CC(=O)c3ccc(OC)cc3O2)cc1 (centres undefined) | inactive: 18.9% |
| OC[C@H]1O[C@@H](OCCc2ccc(O)cc2)[C@H](O)[C@@H](O)[C@@H]1O | inactive: 31.9% |
| Cc1c(O)cc(O)c2c(=O)c(-c3ccc(O)cc3)coc12 | inactive: 17.5% |
| CNCCC=C1c2ccccc2CCc2ccccc21 | inactive |
| COc1cc(CNC(=O)CCCC/C=C\C(C)C)ccc1O | inactive |
| CCN1CCCC1CNC(=O)c1cnn(-c2nccc(-c3ccco3)n2)c1C1CC1 (centres undefined) | inactive: 14.2% |
| CN(Cc1ccco1)c1ncncc1-c1cccnc1 | inactive: 9.32% |
| CCOC(=O)COc1ccc2c(C)c(CCN(CC)CC)c(=O)oc2c1Cl | inactive: -11.6% |
| CC1=C(/C=C/C(C)=C/C=C/C(C)=C/C(=O)O)C(C)(C)CCC1O (centres undefined) | inactive: 20.5% |
| O=S(=O)(c1ccccc1)N1CCC2(CCN(Cc3ccncc3)CC2)CC1 | inactive: 12.8% |
| Cc1ncc(-c2ccc(F)cc2)c(C2CCCN(Cc3cccc(O)c3)C2)n1 (centres undefined) | inactive: 12.3% |
| CC1CCC(NC(=O)N(CCCl)N=O)CC1 (centres undefined) | inactive: 12.6% |
| CCNC(=O)c1cc(NC(=O)COC)cc2nc(-c3ccncc3)n(C)c12 | inactive: -2.75% |
| Cn1cc(-c2nc3cnc(Oc4cccc(Cl)c4)nc3n(CCC#N)c2=O)c2ccccc21 | inactive: 23.9% |
| COc1ccc2c(c1)OC[C@H]1c3cc4c(cc3O[C@@H]21)OCO4 | inactive: -16.6% |
| Nc1cccc(/C=C/c2ccnc3ccccc23)c1 | inactive: -28.7% |
| Oc1ccccc1C=NCc1ccccc1 | inactive: -9.28% |
| CC(C)CN1CC2(CCN(C(=O)c3cccc(F)c3)CC2)C1 | inactive: 12% |
| c1nc(NC2CCNCC2)c2cc(-c3ccoc3)ccc2n1 | inactive: -0.125% |
| Cc1cc(Cl)ccc1OCC(=O)N1CCOc2ccc(CN3C[C@@H](C)O[C@@H](C)C3)cc2C1 | inactive: -4.59% |
| COc1cc(=O)n2c(c1C(=O)N1CCc3ccccc3C1)CCN(Cc1ccc(CO)o1)CC2 | inactive: 2.5% |
| COCC(=O)N1CCC[C@@]2(CCN(C(=O)Nc3ccc(OC)cc3)C2)C1 | inactive: 19% |
| COc1cccc(-c2ccc3ncnc(Nc4ccccc4)c3c2)c1 | inactive: -17.3% |
| OC[C@@H]1O[C@@H](n2cnc3c(NC4CCCC4)ncnc32)[C@H](O)[C@H]1O | inactive: 3.19% |
